Laboratory results published in PubChem BioAssay (NCATS).
Values joined by “and” are separate entries in the source; they are usually repeats but may differ in a detail not shown here. Equal values may be shown once. Inconclusive results, whose numbers are uncertain, are shown with a selection of clear calls. For some assays here: Potencies of inconclusive entries are doubtful fits and often do not repeat. Some structures have more than one record in an assay (separate samples or runs), and their calls can disagree. Active and inactive are the calls of the source. Unless noted, the call rests on the fitted dose curve; in most records, active means well fitted curve in the direction sought with a large enough effect; inconclusive means small, poorly fitted or top-dose-only effect, or another doubt; inactive means no such curve, though single readings can be large; an effect the other way counts as inactive or inconclusive.

What was measured:
[1] = target: Cytochrome P450 2D6 (Homo sapiens) (UniProt P10635); assay: Cytochrome P450 family 2 subfamily D member 6 (CYP2D6) small molecule antagonists: luciferase biochemical (cell-free) qHTS assay (AID 1645840; active means well fitted curve in the direction sought with a large enough effect in the repeat runs; inconclusive means weak or mixed curves; inactive means no such curve, though single readings can be large; an effect the other way counts as inactive or inconclusive; further: nearly all actives have a fitted effect of over 55% in size; further: potency means the concentration at half of the fitted maximal effect)
UniProt P10635, sequence (P10635 whole entry, looked up): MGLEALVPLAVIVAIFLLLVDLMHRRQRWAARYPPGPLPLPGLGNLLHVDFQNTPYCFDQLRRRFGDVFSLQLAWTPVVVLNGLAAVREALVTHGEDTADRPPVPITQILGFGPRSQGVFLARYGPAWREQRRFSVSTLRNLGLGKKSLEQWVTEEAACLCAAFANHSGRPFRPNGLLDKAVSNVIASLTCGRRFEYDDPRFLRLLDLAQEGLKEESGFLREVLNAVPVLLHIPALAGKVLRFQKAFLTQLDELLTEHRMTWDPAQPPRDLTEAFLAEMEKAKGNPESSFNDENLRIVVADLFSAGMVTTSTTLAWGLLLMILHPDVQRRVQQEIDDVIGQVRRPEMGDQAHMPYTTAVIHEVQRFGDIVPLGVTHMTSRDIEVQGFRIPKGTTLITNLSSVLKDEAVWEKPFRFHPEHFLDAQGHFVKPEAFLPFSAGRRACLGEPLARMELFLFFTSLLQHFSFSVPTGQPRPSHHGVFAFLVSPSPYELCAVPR
Procedure, shortened: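 P450-Glo luminescent screen: recombinant CYP2D6 enzyme–proluciferin substrate mix preincubated with compound 10 min at room temperature, then NADPH regeneration added for 1 h at room temperature. Detection reagent added for 20 min; luciferin light read as relative luminescence units.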

[2] = Primary qHTS for inhibitors of nuclear receptor binding SET domain protein 2 (NSD2) in an RCH-ACV wild type WT cells (2C) (AID 1645877); conditions: activity change, negative = cell killing: at 44.9 µM (top of the series); further: potency means the concentration at half of the fitted maximal effect; nearly all actives have a fitted effect of over 70% in size
HEK293 = assay: Cytotoxic Profiling of Annotated Libraries Using Quantitative High-Throughput Screening (AID 1296008); conditions: Five cell lines viability, CellTiter-Glo ATP luminescence, 48-72 h; max response: stronger effect = lower value; further: nearly all actives have a fitted effect of over 60% in size; further: potency means the concentration at half of the fitted maximal effect; on max response: on the % scale 0 is the no-effect control and ±100 the full control effect
Procedure, shortened: (§1)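 Compounds were pin-transferred onto cells and incubated 48 or 72 hr at 37 degree Celsius, 95% humidity. CellTiter-Glo was added, plates sat 10 min at room temperature, then ATP-coupled luminescence was imaged as the viability read-out.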

SKOV3 = assay: Primary qHTS to identify gynecologic anti-cancer compounds using libraries of approved drugs and bioactive compounds (AID 1345084); conditions: Gynecologic cancer cell panel viability, ATPlite luminescence, 48 h; series mostly up to 57.5 µM; further: nearly all actives have a fitted effect of over 55% in size; further: potency means the concentration at half of the fitted maximal effect
Procedure, shortened: (§2)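 Luminescence from the ATPlite ATP-monitoring reagent indicates viable cell number; lower signal means cytotoxicity. Cells received compound 16 h after seeding and were exposed for 48 h across five concentrations.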

HaCat = assay: Cytotoxic Profiling of Annotated Libraries Using Quantitative High-Throughput Screening (AID 1296008); conditions: Five cell lines viability, CellTiter-Glo ATP luminescence, 48-72 h; max response: stronger effect = lower value; further: nearly all actives have a fitted effect of over 60% in size; further: potency means the concentration at half of the fitted maximal effect; on max response: on the % scale 0 is the no-effect control and ±100 the full control effect
Procedure, shortened: as §1

[3] = tested on: Zika virus NS2B-NS3 protease (unlinked complex); assay: Primary screen GU Rhodamine qHTS for Zika virus inhibitors: Unlinked NS2B-NS3 protease assay (AID 1347159); further: nearly all actives have a fitted effect of over 60% in size; further: potency means the concentration at half of the fitted maximal effect
Procedure, shortened: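 Noncovalent NS2B hydrophilic domain–NS3 protease domain complex (25 nM) preincubated 15 min at room temperature with compounds (up to 114 microM) in 10 mM Tris-HCl pH 8.0, 0.01% Tween 20; 1.5 microM Rhodamine110 substrate added, fluorescence change over 15 min fitted to Hill equation.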

[4] = Primary redox qHTS assay for identification of artifact compounds. (AID 1845223);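 further: 0% = DMSO and 100% = reference compound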
Procedure, shortened: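 Amplex Red (25 uM) and HRP (250 mU/mL) in HBSS, with compounds for 15 min, then 250 uM DTT for 30 min, room temperature, dark. Fluorescence 525/598 nm read; normalized to DMSO and 10 uM DA3003; Hill fit.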

CRL-7250 = normal cell line; assay: Cytotoxic Profiling of Annotated Libraries Using Quantitative High-Throughput Screening (AID 1296008); conditions: Five cell lines viability, CellTiter-Glo ATP luminescence, 48-72 h; max response: stronger effect = lower value; further: nearly all actives have a fitted effect of over 60% in size; further: potency means the concentration at half of the fitted maximal effect; on max response: on the % scale 0 is the no-effect control and ±100 the full control effect
Procedure, shortened: as §1

[5] = P-glycoprotein substrates identified in KB-8-5-11 adenocarcinoma cell line, qHTS therapeutic library screen (AID 1346987); further: nearly all actives have a fitted effect of over 65% in size; further: potency means the concentration at half of the fitted maximal effect
Procedure, shortened: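 KB-8-5-11, a colchicine-selected P-gp-overexpressing KB-3-1 subline, was grown without colchicine for the assay. Cells were seeded at 500 cells/well, dosed in concentration-response and incubated 72 h at 37 degree C, 5% CO2. Viability was read by CellTiter-Glo luminescence.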

[6] = Primary qHTS for inhibitors of nuclear receptor binding SET domain protein 2 (NSD2) in an isogenic RCH-ACV NSD2 p.E1099K mutant (9B) (AID 1645876); further: potency means the concentration at half of the fitted maximal effect; nearly all actives have a fitted effect of over 70% in size
[7] = target: Cytochrome P450 2C9 (Homo sapiens) (UniProt P11712); assay: Cytochrome P450 family 2 subfamily C member 9 (CYP2C9) small molecule antagonists: luciferase biochemical (cell-free) qHTS assay (AID 1645842; active means well fitted curve in the direction sought with a large enough effect in the repeat runs; inconclusive means weak or mixed curves; inactive means no such curve, though single readings can be large; an effect the other way counts as inactive or inconclusive)
UniProt P11712, sequence (P11712 whole entry, looked up): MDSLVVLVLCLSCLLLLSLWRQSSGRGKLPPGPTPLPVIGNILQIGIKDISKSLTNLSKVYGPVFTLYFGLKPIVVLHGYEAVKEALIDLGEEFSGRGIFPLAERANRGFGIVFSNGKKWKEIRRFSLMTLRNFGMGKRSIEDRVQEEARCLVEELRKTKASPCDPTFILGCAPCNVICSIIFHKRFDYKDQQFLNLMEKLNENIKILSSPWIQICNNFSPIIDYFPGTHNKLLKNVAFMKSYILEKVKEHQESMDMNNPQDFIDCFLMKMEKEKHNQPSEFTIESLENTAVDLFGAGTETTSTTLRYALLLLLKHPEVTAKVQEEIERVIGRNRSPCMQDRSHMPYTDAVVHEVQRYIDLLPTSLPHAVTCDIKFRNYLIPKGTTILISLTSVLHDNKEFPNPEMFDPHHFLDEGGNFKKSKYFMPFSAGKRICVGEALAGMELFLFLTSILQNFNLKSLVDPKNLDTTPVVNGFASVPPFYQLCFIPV
Procedure, shortened: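 Luminescence, after 20 min with luciferin detection reagent, reflected CYP2C9 turnover during a 1 h NADPH-driven reaction at 37C. Enzyme-substrate mix contained 0.4% bovine serum albumin and was preincubated with compound 10 min at room temperature.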

CAOV3 = assay: Primary qHTS to identify gynecologic anti-cancer compounds using libraries of approved drugs and bioactive compounds (AID 1345084); conditions: Gynecologic cancer cell panel viability, ATPlite luminescence, 48 h; series mostly up to 57.5 µM; further: nearly all actives have a fitted effect of over 55% in size; further: potency means the concentration at half of the fitted maximal effect
Procedure, shortened: as §2

NIH3T3 = assay: Cytotoxic Profiling of Annotated Libraries Using Quantitative High-Throughput Screening (AID 1296008); conditions: Five cell lines viability, CellTiter-Glo ATP luminescence, 48-72 h; max response: stronger effect = lower value; further: nearly all actives have a fitted effect of over 60% in size; further: potency means the concentration at half of the fitted maximal effect; on max response: on the % scale 0 is the no-effect control and ±100 the full control effect
Procedure, shortened: as §1

Es-2 = assay: Primary qHTS to identify gynecologic anti-cancer compounds using libraries of approved drugs and bioactive compounds (AID 1345084); conditions: Gynecologic cancer cell panel viability, ATPlite luminescence, 48 h; series mostly up to 57.5 µM; further: nearly all actives have a fitted effect of over 55% in size; further: potency means the concentration at half of the fitted maximal effect
Procedure, shortened: as §2

KB-3-1 = assay: Cytotoxic Profiling of Annotated Libraries Using Quantitative High-Throughput Screening (AID 1296008); conditions: Five cell lines viability, CellTiter-Glo ATP luminescence, 48-72 h; max response: stronger effect = lower value; further: nearly all actives have a fitted effect of over 60% in size; further: potency means the concentration at half of the fitted maximal effect
Procedure, shortened: as §1

Hek293T = assay: Primary qHTS to identify gynecologic anti-cancer compounds using libraries of approved drugs and bioactive compounds (AID 1345084); conditions: Gynecologic cancer cell panel viability, ATPlite luminescence, 48 h, control line for the selectivity index; series mostly up to 57.5 µM; further: nearly all actives have a fitted effect of over 55% in size; further: potency means the concentration at half of the fitted maximal effect
Procedure, shortened: as §2

OV90 = assay: as above; conditions: Gynecologic cancer cell panel viability, ATPlite luminescence, 48 h; series mostly up to 57.5 µM
Procedure, shortened: as §2

Tov-21-G = assay: as above; conditions: Gynecologic cancer cell panel viability, ATPlite luminescence, 48 h; activity change, negative = cytotoxicity: at 57.5 µM (top of the series)
Procedure, shortened: as §2
Tags describe the fitted curve by direction and shape.

## NCCc1ccc(O)c(O)c1
[1]
  Potency: inactive
[2]
  Potency: inconclusive: 37.2 µM [inhibitor, single point]
HEK293
  Potency: inconclusive: 37.2 µM [inhibitor, single point]
  max response: inactive: -42.9%
SKOV3
  Potency: inconclusive: 7.08 µM [cytotoxic, single point]

## C[C@H](NC(c1cccc2[nH]c(=O)c(=O)[nH]c12)P(=O)(O)O)c1ccc(Br)cc1 (stereo partly drawn)
HEK293
  max response: inactive: 1.8%
HaCat
  Potency: inconclusive: 0.0041 µM [inhibitor, full curve, poor fit]

## COC1C=C(C)C(O)(CO)C2(C)CCCC(C)(C)C12 (stereo not drawn)
HEK293
  Potency: inconclusive: 18.4 µM [inhibitor, single point]

## OC[C@H]1O[C@@H](OC[C@H]2O[C@@H](OC/C=C/c3ccccc3)[C@H](O)[C@@H](O)[C@@H]2O)[C@@H](O)[C@@H]1O
[3]
  Potency: inconclusive: 35.5 µM [inhibitor, partial curve, poor fit]
[4]
  Potency: inactive
CRL-7250
  max response: inactive: 0.699%
HEK293
  max response: inactive: 4.4%

## COC(=O)C1=COC(O[C@@H]2O[C@H](CO)[C@@H](O)[C@H](O)[C@H]2O)/C(=C\COC(=O)/C=C/c2ccccc2)C1CC(=O)OCCc1ccc(O)cc1 (stereo partly drawn)
HEK293
  max response: inactive: -5.04%

## COc1ccc2c(c1)C(=O)N(CCc1ccc(S(=O)(=O)NC(=O)NC3CCCCC3)cc1)C(=O)C2(C)C
[5]
  Potency: inconclusive: 12.4 µM [inhibitor, single point]
[1]
  Potency: inconclusive: 43.6 µM [inhibitor, partial curve, poor fit]
[6]
  Potency: inconclusive: 15 µM [inhibitor, partial curve] and inconclusive: 25.8 µM [inhibitor, partial curve, poor fit]
[2]
  Potency: inconclusive: 15 µM [inhibitor, partial curve] and inconclusive: 25.8 µM [inhibitor, partial curve, poor fit]
HEK293
  Potency: inconclusive: 33.5 µM [inhibitor, single point]
  max response: inactive: -11%
HaCat
  Potency: inconclusive: 5.96 µM [inhibitor, single point]
SKOV3
  Potency: inconclusive: 5.01 µM [rising, single point]

## NC(=O)N1c2ccccc2CC(=O)c2ccccc21
[7]
  Potency: inactive
[6]
  Potency: inconclusive: 33.5 µM [inhibitor, single point]
[2]
  Potency: inconclusive: 21.1 µM [inhibitor, single point]
HEK293
  Potency: inconclusive: 33.5 µM [inhibitor, single point]
  outcome: inactive
CAOV3
  Potency: inactive
SKOV3
  Potency: inactive

## Cc1ccc2nc(NC(=O)CSc3nc4c(c(=O)n3-c3ccccc3)SCC4)sc2c1
[5]
  Potency: inconclusive: 4.69 µM [inhibitor, full curve] and inactive
CRL-7250
  Potency: active: 13.2 µM
HaCat
  Potency: inconclusive: 37.2 µM [inhibitor, single point]
NIH3T3
  Potency: inconclusive: 18.7 µM [inhibitor, partial curve]
CAOV3
  Potency: inconclusive: 7.08 µM [rising, single point]
SKOV3
  Potency: inconclusive: 2.51 µM [rising, partial curve, poor fit]

## O=NN(CCCl)C(=O)NC1CCCCC1
[7]
  Potency: inactive
HEK293
  max response: inactive: 3.97%
  outcome: inactive
CAOV3
  Potency: inactive
SKOV3
  Potency: inactive

## CCOc1cc2ncc(C#N)c(Nc3ccc(OCc4ccccn4)c(Cl)c3)c2cc1NC(=O)C=CCN(C)C
[5]
  Potency: inconclusive: 23.5 µM [inhibitor, partial curve, poor fit]
CRL-7250
  Potency: active: 1.05 µM
NIH3T3
  Potency: inconclusive: 37.2 µM [inhibitor, single point]

## CCC(C(=O)OCCN(CC)CC)c1ccccc1 (stereo not drawn)
CRL-7250
  outcome: inactive

## O=C(Cc1c(F)cccc1F)Nc1cc(OCc2ccc(Cl)cc2)ccn1
[3]
  Potency: inactive
[2]
  Potency: inconclusive: 23 µM [inhibitor, single point]
CRL-7250
  max response: inactive: 3.56%
HaCat
  Potency: inconclusive: 32.6 µM [inhibitor, partial curve, poor fit]
NIH3T3
  max response: inactive: -10.7%
Es-2
  Potency: inactive

## COC(=O)Nc1nc2ccc(S(=O)c3ccccc3)cc2[nH]1 (stereo not drawn)
[5]
  Potency: inconclusive: 20.6 µM [inhibitor, single point]
HEK293
  Potency: active: 841 nM and active: 16.6 µM
HaCat
  Potency: inconclusive: 9.35 µM [inhibitor, full curve]
KB-3-1
  Potency: inconclusive: 29.1 µM [inhibitor, single point]
NIH3T3
  Potency: inconclusive: 37.2 µM [inhibitor, single point]
CAOV3
  Potency: inactive
Es-2
  Potency: active: 3.55 µM
Hek293T
  Potency: inconclusive: 1.78 µM [cytotoxic, full curve, poor fit]
OV90
  Potency: inconclusive: 7.94 µM [cytotoxic, partial curve]
SKOV3
  Potency: inconclusive: 3.55 µM [cytotoxic, partial curve, poor fit]
Tov-21-G
  Potency: active: 3.98 µM

## COc1ccccc1NC(=O)Nc1ccc2ccccc2c1
[5]
  Potency: inconclusive: 18.4 µM [inhibitor, single point]
[3]
  Potency: inconclusive: 39.8 µM [inhibitor, single point]
[2]
  Potency: active: 2.9 µM
CRL-7250
  Potency: inconclusive: 16.4 µM [inhibitor, single point]
NIH3T3
  Potency: inconclusive: 25.9 µM [inhibitor, single point]
OV90
  Potency: inconclusive: 28.2 µM [cytotoxic, partial curve]
SKOV3
  Potency: inactive
Tov-21-G
  Potency: inconclusive: 39.8 µM [cytotoxic, single point]
